Source: a compilation of properties of binary mixtures (doi:10.1016/j.jct.2016.09.024)
The densities may have been worked out from excess volumes.

Experiment: xn = mol fraction of the nth substance listed
Conditions: 100 kPa

CCO + CCCC[N+](C)(C)C.O=S(=O)([N-]S(=O)(=O)C(F)(F)F)C(F)(F)F
x1 = 1
Conditions	mass density [kg/m3]
293.15 K	789.5
308.15 K	776.4

CCO + CCCC[N+](C)(CCCC)CCCC.O=S(=O)([N-]S(=O)(=O)C(F)(F)F)C(F)(F)F
x1 = 1
Conditions	mass density [kg/m3]
293.15 K	789.5
298.15 K	785.2
303.15 K	780.8

CCCC[N+](C)(C)C.O=S(=O)([N-]S(=O)(=O)C(F)(F)F)C(F)(F)F + CCO
mass density [kg/m3]
Conditions	293.15 K	298.15 K	303.15 K	308.15 K
x1 = 0.01	819.1	–	810.4	805.9
x2 = 0.0605	1389.8	1384.6	1380.2	1375.7
x2 = 0.101	1383.8	1379.2	1374.7	–
x2 = 0.1991	–	1363.5	1359	1354.5
x2 = 0.3	1348.5	1343.9	–	1334.9
x2 = 0.4096	1322.2	1317.6	1313	1308.4
x2 = 0.4998	1294.8	1290.2	1285.5	–
x2 = 0.5996	1255.7	1251.1	–	1241.9
x2 = 0.6504	1231.1	1226.4	–	1217.1
x2 = 0.7	1202.7	1198	–	1188.7
x2 = 0.7501	–	1163.4	1158.8	1154.1
x2 = 0.7997	1126.3	1121.7	1117.1	1112.4
x2 = 0.8514	1072	1067.3	–	1057.9
x2 = 0.88	1037.4	–	1025.9	1021.2
x2 = 0.92	973.5	969	966.2	959.7
x2 = 0.93	955.4	951.1	946.6	941.8
x2 = 0.94	936.6	931.9	927.3	922.8
x2 = 0.95	–	911.3	906.8	902.3
x2 = 0.9609	892.4	888	883.5	879
x2 = 0.97	–	866.6	–	857.7
x2 = 0.98	–	841.6	837.2	832.8

CCCC[N+](C)(CCCC)CCCC.O=S(=O)([N-]S(=O)(=O)C(F)(F)F)C(F)(F)F + CCO
mass density [kg/m3]
Conditions	293.15 K	298.15 K	303.15 K	308.15 K
x1 = 0.0149	–	829.1	824.8	820.4
x2 = 0	1265.3	1261.1	1256.9	–
x2 = 0.0636	–	1256	1252	1247.8
x2 = 0.0711	1258.9	1256.6	–	1246.7
x2 = 0.1235	–	1250.8	1246.6	–
x2 = 0.2012	1247.4	1243.1	1238.7	1234.5
x2 = 0.3995	1221.1	–	1212.3	1207.9
x2 = 0.6009	1176.4	1172	1167.8	1162.8
x2 = 0.7187	1132.3	1127.8	1123.2	1118.8
x2 = 0.8118	1078	1073.7	–	1063.9
x2 = 0.8605	1036	–	–	1023
x2 = 0.9076	982.1	977.6	972.7	967.9
x2 = 0.93	948.7	944.2	–	935
x2 = 0.95	914.3	–	–	899.7
x2 = 0.96	–	888.8	–	880
x2 = 0.9702	870.7	–	861.9	–

C[N+](C)(C)CCO.O=S(=O)([N-]S(=O)(=O)C(F)(F)F)C(F)(F)F + CCO
mass density [kg/m3]
Conditions	293.15 K	298.15 K	303.15 K	308.15 K
x2 = 0.7051	1274	1266.4	1261.6	1256.8
x2 = 0.801	–	1174.3	1169.1	1164
x2 = 0.9002	1037.4	1029.8	1026	1020.1
x2 = 0.9601	907.2	900.8	896.3	891.8

CCO + C[N+](C)(C)CCO.O=S(=O)([N-]S(=O)(=O)C(F)(F)F)C(F)(F)F
x1 = 1
Conditions	mass density [kg/m3]
303.15 K	780.8
308.15 K	776.4
